# From PubChem BioAssay (Tox21)
# Where “and” joins values, the source holds several entries; their conditions need not be identical. Identical values can stand only once. Inconclusive results, whose numbers are uncertain, are shown with a selection of clear calls. Potencies beside an inconclusive call are fits to weak or partial responses and may not hold up. Calls of active or inactive are those of the source. The call rests on the fitted dose curve; in most records, active means well fitted cell-killing curve with a large enough effect in the repeat runs; inconclusive means weak or mixed curves, or effect the other way; inactive means flat fitted curve, though single readings scatter.
# Test: cAMP Responsive Elements (CRE) small molecule antagonists, cell-based qHTS assay: qHTS cell viability counter screen (AID 2060913); further: nearly all actives have a fitted effect of over 40% in size
# Conditions: CRE-bla HEK293T viability, CellTiter-Glo luminescence, 5 h; series mostly up to 92.4 µM; viability change, negative = cytotoxic: at the top concentration
# Procedure, shortened: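 Cytotoxicity read in the same wells as the CRE-bla HEK293T antagonist assay: after 3 h compound with 0.25 uM NKH477 final and 2 h beta-lactamase substrate, CellTiter-Glo luminescence measured.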
# On the % scale 0 is the no-effect control and ±100 the full control effect; potency means the concentration at half of the fitted maximal effect; tags describe the fitted curve by direction and shape.
Structure (SMILES),"viability change, negative = cytotoxic",Potency
COC(=O)c1ccccc1C,inactive: 4.4%,–
COc1cc(-c2ccc(=O)[nH]n2)ccc1OC(F)F,inactive: -5.74% [at 42.5 µM],–
COc1cc(O)c(C(=O)c2ccccc2)cc1S(=O)(=O)O,–,"inconclusive: 24.7 µM [cytotoxic, partial curve, poor fit]"
CC1CCCC(=O)C1=O (centres undefined),–,"inconclusive: 2.27 µM [cytotoxic, single point]"
CC(NCCC(c1ccccc1)c1ccccc1)c1ccccc1 (centres undefined),–,"inconclusive: 29.8 µM [cytotoxic, partial curve]"
Cc1ccc(O)c(O)c1,inactive: 13.8%,–
Cc1cccc(C)c1NC(=O)c1ccccc1C(=O)O,inactive: -1.26% [at 42.5 µM],–
CCCCCCCCCCCCCOS(=O)(=O)O,–,"inconclusive: 54.5 µM [cytotoxic, partial curve, poor fit]"
CC(=O)S[C@@H]1CC2=CC(=O)CC[C@]2(C)[C@H]2CC[C@@]3(C)[C@@H](CC[C@@]34CCC(=O)O4)[C@H]12,inactive: -8.74%,–
CCc1cc(Cc2cc(CC)c(N)c(CC)c2)cc(CC)c1N,–,"inconclusive: 57 µM [cytotoxic, single point]"
On1ccccc1=S,–,active: 9.59 µM
O=c1cc[nH]c(=O)[nH]1,–,inactive
CCCOC(=O)c1ccccc1,–,inactive
CC(C)(C)c1ccc(C(=O)O)cc1,inactive: 2.85%,–
C[C@H]1C[C@@H](O)CC(C)(C)C1,inactive: 1.58%,–
O=C(O)CCCCC1CCSS1 (centres undefined),–,"inconclusive: 14.3 µM [cytotoxic, single point]"
COc1ccc(C(=O)N2CCN(CC(=O)N3CCOCC3)CC2)cc1,inactive: 4.01% [at 42.5 µM],–
CC(O)(c1ccc(Cl)cc1)c1ccc(Cl)cc1,–,"inconclusive: 61.1 µM [cytotoxic, single point]"
C[C@@H](Oc1ccc(CNC(=O)c2cccnc2Oc2ccc3c(c2)OCO3)c(F)c1)C(=O)O,–,active: 13.7 µM
O=C1CCCCCN1SSN1CCCCCC1=O,–,inconclusive: 30.6 µM [cytotoxic]

Structure (SMILES),"viability change, negative = cytotoxic",Potency
Nc1cccc([N+](=O)[O-])c1,inactive: 7.3%,–
CCOC(=O)c1ccc(OC(=O)CCCCCN=C(N)N)cc1,–,"inconclusive: 11.9 µM [cytotoxic, single point]"
O=[N+]([O-])c1ccc(O)cc1C(F)(F)F,–,"inconclusive: 10.9 µM [cytotoxic, full curve, poor fit]"
Nc1ccc(S(=O)(=O)Nc2nccs2)cc1,–,"inconclusive: 1.28 µM [cytotoxic, single point]"
O=[N+]([O-])c1cc(Cl)c(Cl)c(Cl)c1Cl,inactive: 6.26%,–
CSc1ccc(/C=C2/C(C)=C(CC(=O)O)c3cc(F)ccc32)cc1,inactive: -2.68% [at 42.5 µM],–
CC(C)CCCCCOC(=O)CCCCC(=O)OCCCCCC(C)C,inactive: 3.77%,–
CC(C)(C)c1cc(/C=C2\SC(=N)NC2=O)cc(C(C)(C)C)c1O,–,inconclusive: 68.6 µM [cytotoxic]
CC(=O)c1ccc2c(c1)N(CCCN(C)C)c1ccccc1S2,inactive: -0.188% [at 42.5 µM],–
Oc1ccc2cc(SSc3ccc4cc(O)ccc4c3)ccc2c1,–,"inconclusive: 68.7 µM [cytotoxic, single point]"
O=C(O)Cc1c[nH]c2ccccc12,–,"inconclusive: 2.54 µM [cytotoxic, single point]"
CNC(=O)c1cc(Oc2ccc(NC(=O)Nc3ccc(Cl)c(C(F)(F)F)c3)cc2)ccn1,inactive: -16.3% [at 42.5 µM],–
c1csc(SSc2cccs2)c1,–,"inconclusive: 0.0045 µM [rising, full curve, poor fit]"
CC[N+](C)(C)c1cccc(O)c1,inactive: 0.508% [at 42.5 µM],–
CCCCCCCCOC(=O)c1cc(O)c(O)c(O)c1,–,"inconclusive: 54.5 µM [cytotoxic, partial curve, poor fit]"
Cc1ccc(-c2cc(C(F)(F)F)nn2-c2ccc(S(N)(=O)=O)cc2)cc1,–,"inconclusive: 60.9 µM [cytotoxic] and inconclusive: 68.6 µM [cytotoxic, single point]"
Cc1ccc(N)cc1O,–,"inconclusive: 61.1 µM [cytotoxic, partial curve, poor fit]"
Nc1nc2ccc([N+](=O)[O-])cc2s1,inactive: 1.08%,–
COCCOCCOCCOCCOC,inactive: -0.831%,–
